In the supplement of paper PMC3334620:
Whole data set: some 33,000 sequences, median “E-score (-0.5 to 0.5)” near -0.043, cut for the highest 2% near 0.37. The list shows a part of the results.

target: T1, Upc2 (UniProt Q12151); experiment: PBM E-score (8-mer binding enrichment) (E-score (-0.5 to 0.5)); higher = stronger / more preferred TF binding; most listed sequences are background and not binding sites; settings: protein concentration: 200 nM; construct: GST-full length
T1 sequence: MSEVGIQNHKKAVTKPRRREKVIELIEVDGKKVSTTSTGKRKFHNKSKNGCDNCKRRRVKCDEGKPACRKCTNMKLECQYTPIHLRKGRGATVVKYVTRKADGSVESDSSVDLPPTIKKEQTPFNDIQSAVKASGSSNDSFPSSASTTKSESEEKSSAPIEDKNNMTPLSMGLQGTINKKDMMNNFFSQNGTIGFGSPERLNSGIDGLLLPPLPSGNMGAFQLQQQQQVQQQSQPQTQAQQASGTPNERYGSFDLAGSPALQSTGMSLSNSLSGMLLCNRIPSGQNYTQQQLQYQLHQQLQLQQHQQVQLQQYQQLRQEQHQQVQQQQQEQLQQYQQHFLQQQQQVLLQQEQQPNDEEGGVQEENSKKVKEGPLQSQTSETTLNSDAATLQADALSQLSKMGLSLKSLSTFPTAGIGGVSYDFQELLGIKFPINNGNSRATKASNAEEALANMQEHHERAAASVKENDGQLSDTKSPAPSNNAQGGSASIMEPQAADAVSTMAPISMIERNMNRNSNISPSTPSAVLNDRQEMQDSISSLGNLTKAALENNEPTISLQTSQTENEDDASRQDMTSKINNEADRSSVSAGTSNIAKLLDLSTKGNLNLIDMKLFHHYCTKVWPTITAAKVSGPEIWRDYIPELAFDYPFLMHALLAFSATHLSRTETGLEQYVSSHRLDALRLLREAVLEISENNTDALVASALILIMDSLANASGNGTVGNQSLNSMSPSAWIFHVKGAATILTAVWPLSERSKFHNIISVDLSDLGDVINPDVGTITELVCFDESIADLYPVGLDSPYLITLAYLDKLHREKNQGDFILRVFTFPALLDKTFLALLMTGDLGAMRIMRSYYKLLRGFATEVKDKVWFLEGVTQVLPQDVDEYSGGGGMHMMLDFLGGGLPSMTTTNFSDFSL
Summary of the method: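 Detection of bound protein used fluorescent anti-GST, with scans normalised by masliner. The proteins were GST-tagged yeast transcription factors applied at about 100-200 nM to universal all-10-mer Agilent arrays made double-stranded by primer extension. Each ungapped eight-base word, pooled with its reverse complement, was scored with an E-score from the Universal PBM Analysis Suite.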

Row | Sequence | PBM E-score
1 | AGTACGTC | 0.0167
2 | CAAGTTAG | -0.217
3 | CTCTAAAA | -0.165
4 | GCCGTCGA | -0.133
5 | TCACCCAA | -0.0588
6 | CAACCACC | -0.183
7 | GGCTCCCA | -0.335
8 | ATTGCCGC | -0.13
9 | ATGGAGGG | -0.334
10 | AAGATGGG | -0.219
11 | CGTTCTAA | 0.222
12 | AAAATATC | 0.012
13 | AGAATAAC | -0.0145
14 | CGGTACAA | 0.222
15 | AGTCCATG | -0.287
16 | ACCTGAAC | 0.0902
17 | GCTGATCC | -0.166
18 | CGGTAGAG | -0.109
19 | CGGCCCGC | -0.146
20 | AGGCTGGC | -0.278
21 | AGAAGCCT | -0.148
22 | GAGGTCGA | -0.0241

Row | Sequence | PBM E-score
23 | GTGGATAA | -0.151
24 | AAACAACG | 0.0699
25 | AGGCCTTG | -0.0981
26 | AGCACTTG | -0.0478
27 | GACTGGTA | 0.0928
28 | AAACGCAG | 0.313
29 | AAGTTCAG | -0.0711
30 | CGCTGACC | -0.0504
31 | AGTTAAGA | -0.118
32 | ACCTTCCC | -0.0937
33 | CTAGCACC | -0.108
34 | GGGGTTAC | 0.103
35 | CTTGGACC | -0.169
36 | CGGGAATA | 0.0198
37 | AGCAGAAC | 0.0883
38 | GACCATAC | 0.158
39 | GGCGACCC | -0.221
40 | CGTATTGC | 0.225
41 | ACGTTGGC | -0.139
42 | AGTACTCA | -0.0817
43 | GTACCGGA | 0.209
44 | GGGGGTTA | -0.272

Row | Sequence | PBM E-score
45 | CCGGGATA | 0.0685
46 | CGCCGTCC | -0.0187
47 | CTATGTGC | -0.213
48 | CGGGCGAC | -0.245
49 | AGTCGTGA | -0.0656
50 | CCGGTCTC | -0.193
51 | AGCATGCG | 0.0391
52 | ACTAGAGA | -0.253
53 | CAAGTGTA | -0.132
54 | GCGCGCAA | 0.0889
55 | CTACTATA | 0.0927
56 | ACAAGGAA | 0.0437
57 | ACAATCCC | -0.059
58 | AAGTTGGT | -0.00045
59 | ATAGCCCA | -0.0686
60 | CCCCGCGA | -0.0946
61 | CCCTGACA | -0.327
62 | CGGAGGTC | -0.046
63 | TACAACGA | 0.16
64 | CAATTTGA | 0.0656
65 | GAGGACAA | -0.0723
66 | AGCGTGGC | -0.184

Row | Sequence | PBM E-score
67 | CTGTCGGC | 0.118
68 | CCAGCTGC | -0.289
69 | GATTTGAC | 0.199
70 | AATCTATG | 0.202
71 | ATAAGCTC | 0.0634
72 | ACACGCTG | -0.0781
73 | CGAAACCC | 0.0101
74 | CATAGTTA | -0.079
75 | ACTTCGCT | 0.184
76 | GAGGGGCC | -0.186
77 | CTCCGCCA | -0.308
78 | CGATCCCG | 0.0208
79 | TATGGTGA | 0.00983
80 | GGGACCAA | -0.0906
81 | GCTCAGCC | -0.221
82 | CAAACTAA | 0.136
83 | AAGGATTC | -0.29
84 | CCTTACAA | -0.227
85 | AGTAGTAG | -0.0255
86 | AATATACT | -0.0413
